Values marked as one replicate rest on one cluster of the flow cell; about a third of the high ones do not repeat.
System: ATP
Assay: switch fluorescence ratio, 500 uM ATP over buffer (Cy3 cluster intensity, sum of 5 cycles each) (fold (ratio)); higher = stronger signal-on switching upon ATP binding; sequences stand for … in TCGTCGGCAGCGTCAGATGTGTATAAGAGACAGTTTTTTTTTTTTTTTTTTTTTTTTT…TC
Settings: aptamer strand: ATP DNA aptamer (quencher-CACCTGGGGGAGTATTGCGGAGGAAGG + anchor), 100 nM annealed; ATP concentration: 500 uM; one replicate
Method in brief: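 The quencher-labelled ATP aptamer, at 100 nM, was annealed to Cy3-labelled switching-strand clusters on a modified Illumina MiSeq flow-cell. The clusters were imaged in selection buffer, then after 15 min with 500 uM ATP at 22 °C, and this buffer/ATP cycle ran five times with NaOH stripping and re-annealing between runs. Per-cluster fluorescence ratios, summed target-cycle over summed buffer-cycle Cy3 intensity, were averaged per switch-domain sequence. Clusters outside 100-1000 RFU were excluded.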
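Note: ATP exposure 15 min at 22 °C before imaging.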

Sequence	switch fluorescence ratio
GCGGCGTGGT	0.991
CCGAGTATTA	1.87
ACTTTTGAGC	1.23
GAGTGAGGAA	0.993
ATATTCACTT	1
CGCTTGATGT	0.976
ATGAATCTAG	0.963
GGTATATCTA	1
ATCACGGGTA	1.02
ATCATCTGCA	1.24
TGGGATCTTC	0.977
AGAGGTTTGA	0.982
TCGTATCTCT	1.03
GAGTTACCCA	1.06
AGAGACTATC	0.997
ATAAGCTATA	0.996
TGTTATCGGG	0.972
TGTACGGTC	0.841
ACAGTTTCG	0.989
CTTTCTCGAG	1.01
ATACCCGTTG	1.05
TTACCGGTGT	1.03
TTCTTTTGAG	1.01
CCATTTATGC	1.03
ATCGAGTTTC	1
ACAGAGATTC	1.02

Sequence	switch fluorescence ratio
AGTATGGAGG	1.01
CGGTCTACGG	0.97
TTCAACTTAA	1.04
TGACGACTAG	1.06
GAAAGCGACG	1.1
ACTCGGGACA	1.09
TATTAGCAAG	1.06
ATCATTCA	0.987
ACAGCCTATG	0.937
ATATAGTGCG	0.978
TTTTCATGCA	1.02
CACGCACTGG	1.73
ATGCTTGTGT	1.04
TTGACATTTG	1.04
TAAAAATCGG	0.999
TTCGGATCTG	0.985
GAAATCCGCA	2.08
AACTCAACTT	1.04
GTACTCAGG	1.12
TCTTCGGGGA	0.999
GAATATCCGA	1.01
AGGAAGAGCA	1.04
TTTCGGCAAT	1.36
GCTAAGGTGG	1.01
AAAACGTAGG	0.987
TTAAGAACCG	1.03

Sequence	switch fluorescence ratio
TGATTTACCT	1.26
CTAATTACAT	0.951
ATTGGTGCCT	1.03
CTCTGGCGTA	1.01
AGTTTACCTC	1.02
GTCCGGGTCT	1
GAATGCTTGA	1.03
GCTTTATG	0.98
TTTCGTTC	1.05
TCTGTCACTC	1.01
TGATAGCGGT	1
TTCACGGCTT	1.04
AGATACAGTG	1.01
GGCACAGGTA	1.03
CACGTCACTG	1.61
CCTCATGTTT	1.21
AGGCCCACGT	1.01
CTAATATTTG	1.03
CAATTACACG	1.03
ATAAAAAGTG	1.08
CCGTCGGCGG	1.04
GAATGGCTTA	1.04
GGCTCAGATC	1.02
GTCATTGATG	0.99
TTGCCTAAAA	0.981
ATATATACAG	1.05

Sequence	switch fluorescence ratio
GTTGAGGGAA	0.961
TCGGTCTCCA	1
GGCGTGATA	1.21
TTTGAACACC	1.23
AGGAATCTCT	0.967
ATTTCGAGGC	1.05
AATCGGGGTA	0.976
ATTGAATGCG	0.979
GACTGAAAA	0.989
AACCGATCTA	1.01
TGGGCCACCC	1.07
ACGTCAAAGA	1.16
TTATCGTGAC	0.965
CTGGTTCAGT	1.01
CTAAGTGGCG	0.993
CCTTTATTAC	1.51
TGGTACGAAT	0.996
GCGACTGAGG	0.948
CGGGATATCC	1.03
GTCTTAGAGC	1.02
CTGACCGGGC	1
GTAAGATCCA	1
ATGTGCCAAA	1.01
TCCATCCAAC	1.07
CGACATACGT	1.46
GGCCGCCAGT	1.03

Sequence	switch fluorescence ratio
GTTGTCTCGT	1.04
GAGGCCGACA	0.997
CCTTCTAAGG	1.57
TAGTCAGCTA	1.02
TGAGGAAAGT	0.989
TCTGGGGTT	1.01
TCAAAGAGCC	1.02
ACGTCTGTCA	0.998
ATGAGTACTT	1.01
GGCACTACCC	1.19
CGCGGGGCGT	1
ATACGCAT	1.23
TTACATCGAG	1.03
CGTTAAAGGT	1.03
CAAATGGGGT	1.03
CGTTATCAGC	0.951
CCTGCTGAAC	2.43
TAAGGACCAG	1.01
GGCACCAC	1.43
GCTTACTTTC	1.02
GTGGAAGGG	0.937
GGTCGGGTGT	0.991
AAGATAGGCA	0.997
AAACCACATT	1.03
CAGCCGTATG	0.961
AACGATGGTC	1.07

Sequence	switch fluorescence ratio
TCGACCATTT	1.01
TTCACGGGTG	1.46
CACGTGGGGT	0.966
AACTAGCGGC	1.03
CTGCGTATTC	1.41
CGATTGGATC	0.99
ATTCACCTCG	1.02
GTAGTTCCTG	0.978
ATTCTTAGCA	1.02
GCGTGTGGAG	1.01
AAATTAGTAT	0.988
GTACTTTTG	1
TTGGAAAGAG	1.05
AAGGGGCTGT	0.989
GAGGGGCAAT	1.05
TTTTCTGCAA	3.99
CTGAGTATCT	0.978
CGGCTCCAC	1.1
AAACGGCCAA	0.987
TATTCCTCAC	2.61
AATATGCTTG	0.994
GACGCAGTGT	1.33
ACGTGTTTTC	1
